From PMC7048817, “Structure of the processive human Pol δ holoenzyme” (Nature Communications, 2020) come the findings set out here.

For orientation: stoichiometry N means a count of units in the complex or per binding partner.

This data set concerns the molecule itself. Briefly: SEC; HiLoad 16/600 Superdex 200 pg in PCNA storage buffer; 2 mg of each PCNA form in 250 μL, 1 mL/min; markers carbonic anhydrase (27 kDa) and conalbumin (75 kDa); monomers to trimer.

B1: LA-PCNA (PCNA L66A, A67E) (natural protein)
chain: not shown
notes: proliferating cell nuclear antigen, human, full length, with L66A and A67E; source: E. coli BL21 (DE3), purified (HisTrap, HiTrap Q, Superdex 200)
As to B1, the “stoichiometry N” value was found to be 3.
